These results are taken from article PMC4914337.

Amino acid sequences for entries named in this document (tags omitted). A change or cut given only in a name is not applied to a line headed by its entry. Chains listed by the source or under a name are the forms on record and can include a tag or linker. Residues count along the entry.
UniProt P10451, residues 17-314: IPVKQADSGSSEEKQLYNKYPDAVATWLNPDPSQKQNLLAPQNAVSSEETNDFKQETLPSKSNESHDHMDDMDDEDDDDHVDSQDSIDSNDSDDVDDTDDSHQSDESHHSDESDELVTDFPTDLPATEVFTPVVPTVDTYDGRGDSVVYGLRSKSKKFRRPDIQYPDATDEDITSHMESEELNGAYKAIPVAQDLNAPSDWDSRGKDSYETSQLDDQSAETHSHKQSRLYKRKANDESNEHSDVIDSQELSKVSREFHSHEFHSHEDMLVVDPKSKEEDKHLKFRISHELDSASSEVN
UniProt P08670: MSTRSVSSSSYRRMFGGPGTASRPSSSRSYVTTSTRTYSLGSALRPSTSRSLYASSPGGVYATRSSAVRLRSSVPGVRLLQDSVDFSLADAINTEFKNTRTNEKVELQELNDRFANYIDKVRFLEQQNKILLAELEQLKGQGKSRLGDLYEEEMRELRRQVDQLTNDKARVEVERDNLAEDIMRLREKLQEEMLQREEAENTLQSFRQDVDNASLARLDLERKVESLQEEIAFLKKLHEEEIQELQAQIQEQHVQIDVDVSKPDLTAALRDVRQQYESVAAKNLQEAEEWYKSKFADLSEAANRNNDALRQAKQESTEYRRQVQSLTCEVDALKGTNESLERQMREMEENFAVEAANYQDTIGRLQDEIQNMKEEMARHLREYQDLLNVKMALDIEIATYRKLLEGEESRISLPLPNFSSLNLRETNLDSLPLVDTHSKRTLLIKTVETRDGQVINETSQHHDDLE
His-EGFP-tagged vimentin VIM 246-466, purified from HEK-293T cells: residues 246-466 of P08670

These are yes or no findings as the source states them, for the method shown. For some assays here: Binding seen in cells or lysates may run through a third protein. Some binding calls cover weakened binding; strength is not graded here.

Experiment [1] deals with Flag-OPN (osteopontin) expressed in MHCC-97L cells (UniProt P10451). The experiment is described as follows: co-IP; MHCC97L cells co-transfected with EGFP-tagged vimentin deletion mutants and the OPN-Flag construct; lysates precipitated with anti-Flag beads; immunoblot with anti-EGFP and anti-Flag. Background: In western blotting, separated proteins are transferred to a membrane and probed.

The target in experiment [2] is His-EGFP-tagged vimentin VIM97-466, purified from HEK-293T cells (human) (UniProt P08670). Briefly: pull-down; in vitro binding assay: 2 μg FLAG-OPN with about the same amount of His-EGFP-tagged vimentin proteins in 0.2% Triton X-100, 50 mM Tris-Cl pH 7.5, 100 mM NaCl, 15 mM EGTA, 1 mM DTT; pulled down with Anti-His Affinity Resin, four washes (0.5% Triton X-100); Western blot; both purified.

In experiment [3] the target is His-EGFP-tagged vimentin VIM 246-466, purified from HEK-293T cells (human) (UniProt P08670). Described as above.
The target in experiment [4] is Flag-OPN (osteopontin) produced in Hep3B cells (UniProt P10451). Briefly: co-IP; HCC cells (Hep3B, MHCC-97L) transfected with Flag-OPN or Flag-vimentin, empty vector as control; RIPA lysate on M2 anti-Flag mAb agarose beads overnight at 4°C, five washes with RIPA, elution with Flag peptide; immunoblot with reciprocal antibodies.
The target of experiment [5] is Flag-vimentin expressed in MHCC-97L cells (human) (UniProt P08670). Described as above.
Experiment [6] concerns the target Flag-OPN (osteopontin) expressed in MHCC-97L cells (UniProt P10451). The experiment is described as above.

On to “EGFP-tagged vimentin deletion mutant VIM1-96, in MHCC97L cells (from UniProt P08670 1-96) (domain or fragment)”, for which the binding entry in experiment [1] is on record as “no binding”. For the substance “EGFP-tagged vimentin deletion mutant VIM1-245, in MHCC97L cells (from UniProt P08670 1-245) (domain or fragment)”, the binding result in experiment [1] was “no binding”. The same measure, in the same setting: for “EGFP-tagged vimentin deletion mutant VIM 246-466, in MHCC97L cells (from UniProt P08670 246-466) (domain or fragment)” the value was “binds”. For “FLAG-OPN protein purified from HEK-293T cells (from UniProt P10451 17-314)”, the binding result in experiment [2] and in experiment [3] was “binds” throughout. In the case of “EGFP-tagged vimentin deletion mutant VIM97-466, in MHCC97L cells (from UniProt P08670 97-466) (domain or fragment)”, the binding entry in experiment [1] is reported as “binds”.

For the substance “EGFP-tagged vimentin deletion mutant VIM407-466, in MHCC97L cells (from UniProt P08670 407-466) (domain or fragment)”, the binding entry in experiment [1] was “no binding”. For the substance “vimentin, endogenous in Hep3B cells (from UniProt P08670 1-466)”, the binding entry in experiment [4] was “binds”. Turning to “OPN (osteopontin) in MHCC-97L cells transfected with Flag-vimentin (from UniProt P10451 17-314)”, the binding entry in experiment [5] is “binds”. Take “vimentin, endogenous full-length, in MHCC-97L cells (from UniProt P08670 1-466)”: the binding result in experiment [6] and in experiment [1] was “binds” throughout.
